From PubChem BioAssay AID1508624 (National Center for Advancing Translational Sciences (NCATS), 2021)
About 120 (0.25%) of roughly 48,000 compounds were called active. Inconclusive results (about 4%) are left out. Calls follow the shape of the dose curve; as a rule, active = well fitted activation curve with a large enough effect; inconclusive = small, poorly fitted or top-dose-only effect, or another doubt; inactive = no such curve, though single readings can be large or run the other way. The entries are a selection whose mix differs from that of the whole data set. Where no call is shown, the source filed none.

Test: Primary qHTS for Identification of Small Molecule Activators of Huntingtin-Antisense Promoter Activity; also: nearly all actives have a fitted effect of over 55% in size
Conditions: HEK293 HTT-AS promoter firefly luciferase reporter, 24 h; activity change, positive = activation: at 57.5 µM (top of the series), percent change from vehicle, -100% = no light
Procedure, shortened: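 Firefly luciferase readout (Dual-Glo, 10 min RT) after 24 h, 37 °C compound exposure (final up to 57.5 uM) of HEK293 reporter cells cultured 24 h beforehand; PTC124 at 50 uM final as control inhibitor; activity scaled vehicle 0%, zero RLU -100%.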

SMILES	activity change, positive = activation
COc1ccccc1NC(=O)C1=C(C)Nc2ncnn2C1c1ccccn1 (centres undefined)	-6.64%
CCOc1ccccc1NS(=O)(=O)c1ccc2oc(=O)c3ncn(C)c3c2c1	-5.74%
Cc1nc(SCC(=O)OC(C)(C)C)c2c3c(sc2n1)CCCC3	-3.4%
Cc1ccc(C2Nc3ccccc3-n3c(-c4ccccc4)c4c(=O)n(C)c(=O)n(C)c4c32)cc1 (centres undefined)	-6%
COc1cccc(NC(=O)c2ccc3c(=O)n4nc(Nc5ccccc5OC)sc4nc3c2)c1	inactive: -33.6%
Cc1oc2ccc(O)c(CN3CCC(C)CC3)c2c1C(=O)Nc1ccccc1	-13.4%
CCc1nc2sc3c(N4CCCCC4)ncnc3c2c2c1CCCC2	-4.17%
Cc1cc(C)cc(NS(=O)(=O)c2ccc(-c3cc(C)no3)cc2)c1	-33.7%
Cn1c(=O)c2c(-c3ccccc3)n3c(c2n(C)c1=O)C(c1cc(Cl)ccc1O)Nc1ccccc1-3 (centres undefined)	-7.05%
O=C(Nc1ccc2oc(-c3ccc(Br)cc3)nc2c1)c1cc2ccccc2o1	inactive: 24.5%
Cc1c(NS(=O)(=O)c2ccc(C(C)(C)C)cc2)c(=O)n(-c2ccccc2)n1C	-7.26%
Cc1ccc(C)c(N2CCN(C(c3ccccc3)c3nnc(-c4ccccc4)o3)CC2)c1 (centres undefined)	-15.5%
COc1ccc(-c2cc(C(=O)Nc3c(C)nn(Cc4ccccc4C)c3C)no2)cc1	-14.6%
COc1ccc(NC(=O)c2cnc3sc(N4CCOCC4)nn3c2=O)c(OC)c1	3.04%
Cn1cnc2c(=O)oc3ccc(S(=O)(=O)Nc4ccc(F)cc4)cc3c21	3.54%
CCCCN(CC)CCCNC(=O)Nc1sc2nc3n(c(=O)c2c1C)CCC(C)CC3 (centres undefined)	-15.3%
CC(C)CCNC(=O)c1cnc2sc(N3CCCCC3)nn2c1=O	2.04%
Cc1c(NC(=O)Nc2ccccc2C(F)(F)F)sc2nc3n(c(=O)c12)CCC(C)CC3 (centres undefined)	7.22%
CC1CCC(N2CC(=O)N(C3CCCCC3)C(c3ccc(F)cc3)C2=O)CC1 (centres undefined)	-9.24%
CC1Cc2cc(S(=O)(=O)NCCc3ccccc3)ccc2N1C(=O)C1CCC1 (centres undefined)	-33.3%

SMILES	activity change, positive = activation
Cc1ccc(-c2noc(CCCC(=O)NCc3ccco3)n2)cc1	inactive: -60.7%
CCOc1ccc(NC(=O)/C=C\C(=O)N(c2ccc(C(C)C)cc2)C(C(=O)NCc2ccco2)c2ccc(F)cc2)cc1 (centres undefined)	-33.7%
O=C(NCCc1nc2ccccc2n1Cc1ccc(F)cc1)c1ccco1	-16.1%
CS(=O)(=O)N1CCC(N2CCN(Cc3ccccc3)C(=O)C2=O)CC1	2.77%
O=S(=O)(Nc1cccc(-c2ccc(N3CCCCCC3)nn2)c1)c1cccc(F)c1	51.1%
COc1cc(C)c(C)cc1S(=O)(=O)Nc1cccc(-c2ccc(N3CCOCC3)nn2)c1	3.85%
CC(=O)N1CCc2cc(S(=O)(=O)CCC(=O)NCc3ccc(Cl)cc3)ccc21	-36.3%
O=C(Nc1cccnc1Cl)c1cc(-c2cccc(Cl)c2)on1	8.65%
COc1ccc(OC)c(NC(=O)/C=C/c2ccc(C)o2)c1	18.1%
CCc1cccc(C)c1NC(=O)c1cccc(C(=O)Nc2c(C)cccc2CC)c1	-29.9%
CC(C)n1c(=N)c(C(=O)NCc2ccccc2)cc2c(=O)n3ccccc3nc21	inactive: -20.3%
CC(=O)c1cccc(NC(=O)c2noc3c2CCCC3)c1	76.6%
CCc1nn(CC(=O)NCCc2ccc(OC)cc2OC)c(=O)c2cc3c(OC)cccc3n12	-17.9%
Cc1ccc(C)c(N2CCN(CCCNC(=O)c3cnn(-c4ccccc4Cl)c3C3CCN(C(=O)OC(C)(C)C)CC3)CC2)c1	inactive: -30.5%
Cc1c[nH]c(C=C2C(=O)Nc3ccccc32)c1CCC(=O)O	inactive: 5.63%
COc1ccc(OC(=O)N(CC(=O)O)Cc2ccc(OCCc3nc(-c4ccccc4)oc3C)cc2)cc1	inactive: -10.2%
CCc1cc(=O)oc2c3c(c(Cl)cc12)OCN(Cc1cccc(OC)c1)C3	-9.31%
CCS(=O)(=O)N1N=C(c2ccc(C)cc2)CC1c1cc2ccc(OC)cc2nc1Cl (centres undefined)	-22.3%
CCc1cc(Nc2nccc(-c3c(-c4ccc(OC)c(C(=O)Nc5c(F)cccc5F)c4)nc4ccccn34)n2)c(OC)cc1N1CCC(N2CCN(S(C)(=O)=O)CC2)CC1	inactive: -0.352%
Cc1ccc(C2Nc3ccccc3-n3c(-c4ccccc4)c4c(=O)n(C)c(=O)n(C)c4c32)o1 (centres undefined)	-2.87%

SMILES	activity change, positive = activation
O=C(Cn1c(=O)n(Cc2ccc3c(c2)OCO3)c(=O)c2ccc(C(=O)NC3CCCCC3)cc21)Nc1ccccc1F	inactive: -17.5%
CSc1ccc(CNC(=O)c2cc3c(=O)n(Cc4ccco4)ccc3nc2C)cc1	-15.3%
COc1ccccc1OCCn1c(-c2ccc(Br)cc2)nc2ccccc2c1=O	5.48%
CCOCCCN1C(=O)CN(C2CCCCCC2)C(=O)C1c1ccc(OC(C)C)c(OC)c1 (centres undefined)	-0.4%
CCCCOc1ccc(S(=O)(=O)Nc2ccc(-c3ccc(N4CCCCCC4)nn3)cc2)cc1	0.987%
O=C(COc1ccc2oc3c(c2c1)CCCC3)Nc1ccc(Br)cc1	inactive: -30.6%
CCOC(=O)C1CCN(C(=O)Cn2nc(C)n3c(cc4cc(F)ccc43)c2=O)CC1	-7.78%
CCCCN1C(=O)CN(C2CCCCCC2)C(=O)C1c1ccc(OCCC)c(OC)c1 (centres undefined)	-30.2%
Cc1coc2cc3oc(=O)c(CCC(=O)NCc4ccc(Cl)cc4)c(C)c3cc12	-44%
COc1cc(C2C(=O)N(C3CCCCC3)CC(=O)N2Cc2ccc(C)cc2)ccc1OC(C)C (centres undefined)	-22%
Cc1ccc(C(=O)Nc2cccc(C(F)(F)F)c2)cc1-c1ccc2nc(NCCN3CCOCC3)ncc2c1	inactive: -21.2%
CC(=O)c1ccc(S(=O)(=O)Nc2cccc(-c3ccc(N4CCCCCC4)nn3)c2)cc1	14.2%
Cc1ccc(Cl)cc1-n1ncc2c(NC3CCCCCC3)ncnc21	inactive: -32.1%
CCc1nnc2c3ccccc3nc(Nc3ccc(C(C)=O)cc3)n12	inactive: -20.1% [at 11.5 µM, percent change from vehicle, -100% = no light]
O=C(Nc1c(Cl)cccc1Cl)c1cc(-c2ccc3c(c2)OCO3)on1	75%
COC(=O)c1cc2oc3ccccc3c2n1Cc1nc(-c2ccc(OC)cc2)oc1C	-2.27%
Cc1ccc(-n2ncc(C(=O)NCc3ccccc3C)c2-n2cccc2)cc1	-27.6%
Cc1ccc(NC(=O)/C=C/c2ccc(C)o2)c(C)c1	25.1%
CCS(=O)(=O)N1CCC(n2c(C(F)(F)F)nc3cccnc32)CC1	1.6%
